{"source": "PubChem BioAssay AID686978", "about": "(National Center for Advancing Translational Sciences (NCATS), 2013)", "note": "Screen size: about 420,000 compounds; about 64,000 (15%) were called active. The shares of active, inactive and inconclusive entries below differ from those in the screen. Calls follow the shape of the dose curve; as a rule, active = well fitted inhibition curve with a large enough effect; inconclusive = small, poorly fitted or top-dose-only effect; inactive = flat fitted curve, though single readings scatter. No potency is given beside an inconclusive call; the fits are too rough.", "data": [{"assay": "qHTS for Inhibitors of human tyrosyl-DNA phosphodiesterase 1 (TDP1): qHTS in cells in absence of CPT; also: nearly all actives have a fitted effect of over 55% in size; also: potency is read from the fitted curve at half-maximal effect; tags tell the direction and shape of the fitted curve; as to activity change, negative = growth inhibition: % is scaled to controls: 0 for no effect and ±100 for the full control effect", "settings": "DT40 Tdp1-/- hTDP1 cells, no CPT, ATP luminescence, 48 h; activity change, negative = growth inhibition: at 46.2 µM (top of the series) unless noted", "method_in_brief": "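Camptothecin absent (DMSO only). Human TDP1-complemented DT40 knockout cells, 400 cells/well, 37 °C for minimum 48 hr; ATP measured via CellTiter-Glo, 30 min dark incubation, luminescence.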", "values": [{"compound": "CCCC1=NN(C(=O)C(=O)Nc2ccc(Br)cc2)C(O)(C(F)(F)F)C1", "note": "(stereo not drawn)", "Potency": "active: 4.61 µM"}, {"compound": "COc1ccccc1OCCn1cc(C(=O)C(C)C)c2ccccc21", "Potency": "inconclusive [inhibitor, single point]"}, {"compound": "Nc1nc(CN2CCN(c3ccccc3F)CC2)nc(Nc2ccc3c(c2)OCCO3)n1", "Potency": "inconclusive [inhibitor, single point]"}, {"compound": "O=c1c(N2CCN(c3cccc(Cl)c3)CC2)csc2ccc(Cl)cc12", "Potency": "inconclusive [inhibitor, single point]"}, {"compound": "CCOc1ccc(/C(O)=C2/C(=O)C(=O)N(c3ccccn3)C2c2ccc(F)cc2)c(C)c1", "note": "(stereo not drawn)", "Potency": "inconclusive [inhibitor, single point]"}, {"compound": "COc1ccc(S(=O)(=O)N2CC=C(C(=O)Nc3ccc(NC(C)=O)cc3)CC2)cc1", "Potency": "inactive"}, {"compound": "CSc1ccc(C(=S)N2CCN(Cc3ccccc3)CC2)cc1", "Potency": "inconclusive [inhibitor, single point]"}, {"compound": "O=C(Nc1ccc(Br)cc1)c1cc(S(=O)(=O)Nc2ccccn2)ccc1Cl", "Potency": "inconclusive [inhibitor, partial curve, poor fit]"}, {"compound": "Cc1cc([N+](=O)[O-])nn1Cc1ccc(C(=O)N/N=C/c2ccc(O)cc2O)cc1", "Potency": "inconclusive [inhibitor, single point]"}, {"compound": "COc1ccc(NC(=O)CN(C)CC(=O)NC2CCCCC2C)cc1", "note": "(stereo not drawn)", "Potency": "inactive"}, {"compound": "O=C(NC1CCN(Cc2ccccc2Cl)CC1)c1ccccc1", "Potency": "inconclusive [inhibitor, single point]"}, {"compound": "Cc1cc2ncn(CC(O)COC3CCCCC3)c2cc1C", "note": "(stereo not drawn)", "Potency": "inconclusive [inhibitor, single point]"}, {"compound": "CCOC(=O)Cc1csc(NS(=O)(=O)c2ccc3ccccc3c2)n1", "Potency": "inactive"}, {"compound": "CCCCCCc1cc2cc(S(=O)(=O)c3ccc(F)cc3)c(=O)oc2cc1O", "Potency": "inconclusive [inhibitor, single point]"}, {"compound": "Cc1ccc2c(c1)c(C)c(C)n2CC(O)Cn1nnc2ccccc21", "note": "(stereo not drawn)", "Potency": "inconclusive [inhibitor, partial curve, poor fit]"}, {"compound": "COc1ccc(-c2nnn(CC(=O)N(CC(=O)NCCC(C)C)c3ccccc3)n2)cc1OC", "Potency": "inconclusive [inhibitor, partial curve, poor fit]"}, {"compound": "COc1cc(NC(=O)c2cc(Cl)nnc2Cl)cc(OC)c1OC", "Potency": "inconclusive [inhibitor, single point]"}, {"compound": "CCC(=O)c1ccc(N2CCN(C(=O)c3cc([N+](=O)[O-])ccc3N3CCN(C)CC3)CC2)c(F)c1", "Potency": "inactive"}, {"compound": "Brc1cc(Br)c2nc(-c3ccc(N4CCOCC4)cc3)ccc2c1", "Potency": "inconclusive [inhibitor, single point]"}, {"compound": "CN(CC(=O)OCC(=O)NCc1ccccc1)S(=O)(=O)c1ccc(F)cc1", "Potency": "inactive"}, {"compound": "COCCN(C(=O)COC(=O)/C=C/c1cccs1)c1c(N)n(Cc2ccccc2)c(=O)[nH]c1=O", "Potency": "inactive"}, {"compound": "CCOC(=O)c1[nH]c(C)c(CCC(=O)Nc2cc(Cl)c(OC)cc2OC)c1C", "Potency": "inconclusive [inhibitor, single point]"}, {"compound": "CC(C)(C)c1nnc(NC(=O)c2ccc3c(c2)OCO3)s1", "Potency": "inconclusive [inhibitor, single point]"}, {"compound": "Cc1ccc(C(=O)NNC(=O)c2ccc3ccccc3c2O)cc1", "Potency": "inconclusive [inhibitor, single point]"}, {"compound": "O=C(NC1CC1)c1ccc(NC(=O)C2CCCC2)cc1", "Potency": "inactive"}, {"compound": "C/C(=N\\NC(=O)COc1ccc(C(C)(C)C)cc1)c1ccccc1", "Potency": "inconclusive [inhibitor, single point]"}, {"compound": "O=C(Cc1ccc(N2CCNC2=O)cc1)N1CCCC(Nc2ccc(F)c(F)c2)C1", "note": "(stereo not drawn)", "Potency": "active: 3.66 µM"}, {"compound": "c1coc(-c2nnc3sc(C4CCCCC4)nn23)c1", "Potency": "inconclusive [inhibitor, single point]"}, {"compound": "Cc1ccc(S(=O)(=O)c2c(N)n(Cc3ccco3)c3nc4ccccc4nc23)cc1C", "Potency": "inconclusive [inhibitor, single point]"}, {"compound": "Cc1cccc(C(=O)N2CCC(=O)N(C(COCc3ccccc3)Cc3ccccc3)CC2)c1", "note": "(stereo not drawn)", "Potency": "active: 25.9 µM"}, {"compound": "Cc1ccc(NC(=O)CN2c3cccc4cccc(c34)S2(=O)=O)cc1", "Potency": "inconclusive [inhibitor, single point]"}, {"compound": "CC(C)c1ccc(NC(=O)[C@H](NC(=O)[C@@H]2Cc3ccccc3CN2)c2ccccc2)cc1", "Potency": "inconclusive [inhibitor, single point]"}, {"compound": "COC(=O)C1CN(C(=O)COc2cccc(C)c2C)c2ccccc2O1", "note": "(stereo not drawn)", "Potency": "inactive"}, {"compound": "COCCN1C2=C(C(=O)CC(C)(C)C2)C(c2ccc(O)c(OC)c2)C2=C1CC(C)(C)CC2=O", "Potency": "inactive"}, {"compound": "O=C(NNC(=O)c1ccccc1O)c1ccco1", "Potency": "inactive"}, {"compound": "CCC(C)NC(=O)c1cn(CC)c2ccc(S(=O)(=O)N3CCc4ccccc4C3)cc2c1=O", "note": "(stereo not drawn)", "Potency": "inconclusive [inhibitor, single point]"}, {"compound": "O=C(CCC(=O)N(CC(=O)NC1CCCCC1)Cc1ccco1)Nc1nccs1", "Potency": "inconclusive [inhibitor, single point]"}, {"compound": "CC(C)c1ccc(N(CC(=O)NCCCN2CCOCC2)S(=O)(=O)c2ccccc2)cc1", "Potency": "active: 25.9 µM"}, {"compound": "O=C(Cn1cnc2c(nnn2-c2cccc(Cl)c2)c1=O)NCc1ccccc1", "Potency": "inactive"}, {"compound": "Cc1cc(C)c(NC(=O)Cn2c(=O)n(CC(=O)NCCc3ccccc3)c(=O)c3ccccc32)c(C)c1", "Potency": "inactive"}, {"compound": "O=C(NC1CCCCCC1)c1ccc(CS(=O)c2cccc(Cl)c2)o1", "note": "(stereo not drawn)", "activity change, negative = growth inhibition": "inconclusive: -31.2% [inhibitor]"}, {"compound": "O=C(CSc1nc2ccccc2n1Cc1cccc(F)c1)N1CCN(c2ccc(F)cc2)CC1", "Potency": "inconclusive [inhibitor, partial curve]"}, {"compound": "O=C(NCc1ccccc1Cl)c1ccc2c(c1)N(Cc1ccccc1)CCS2", "Potency": "active: 18.4 µM"}, {"compound": "O=C(Nc1ccc(Br)cc1)c1ccc(N2C(=O)C3CC=CCC3C2=O)cc1", "note": "(stereo not drawn)", "Potency": "inconclusive [inhibitor, partial curve]"}, {"compound": "CC(C=NNc1ccc([N+](=O)[O-])cn1)=Cc1ccccc1", "activity change, negative = growth inhibition": "inconclusive: -36.5% [inhibitor]"}, {"compound": "Cc1cc(NS(=O)(=O)c2cn(C)nc2C)no1", "Potency": "inactive"}, {"compound": "COc1ccc(NC(=O)CN2CCN(c3ccc(Cl)cc3)CC2)c(OC)c1", "Potency": "inconclusive [inhibitor, single point]"}, {"compound": "COc1cccc(CNC(=O)C2CCC(CNc3nc(=S)[nH]c4ccccc34)CC2)c1", "note": "(stereo not drawn)", "Potency": "inconclusive [inhibitor, partial curve]"}, {"compound": "Cc1ccc(C)c(NS(=O)(=O)c2ccc(-n3cccn3)cc2)c1", "Potency": "inconclusive [inhibitor, single point]"}, {"compound": "CC(=O)Nc1ccc(S(=O)(=O)N2CCC(C(=O)NCCc3c[nH]c4ccccc34)CC2)cc1", "Potency": "inactive"}, {"compound": "Cc1ccc2c(c1)/C(=C/c1ccccc1)C(=O)N2", "Potency": "inconclusive [inhibitor, single point]"}, {"compound": "Cc1nc(SCC(=O)N2c3ccccc3Sc3ccccc32)n[nH]1", "Potency": "inconclusive [inhibitor, single point]"}, {"compound": "O=C(NCCCN1CCOCC1)c1cc(-c2ccc(F)cc2)on1", "Potency": "inconclusive [inhibitor, partial curve]"}, {"compound": "O=C(N/N=C/c1cccs1)c1cccc2cc[nH]c12", "Potency": "inconclusive [inhibitor, single point]"}, {"compound": "Cc1nc(-c2ccc(C)c(S(=O)(=O)N3CCC(C(=O)NCc4ccc(F)cc4)CC3)c2)no1", "Potency": "active: 5.17 µM"}, {"compound": "O=C(NNC(=O)C1CCN(Cc2ccc(Cl)c(Cl)c2)CC1)c1cccs1", "Potency": "active: 16.4 µM"}, {"compound": "COC(=O)[C@@H]1C[C@@H]2CC[C@@H](O)C[C@@H]2N1Cc1ccccc1OS(=O)(=O)c1ccc(C)cc1", "Potency": "inconclusive [inhibitor, single point]"}, {"compound": "O=C(C[n+]1cccc(CNC(=O)c2ccc(OC(F)F)cc2)c1)Nc1cccc(C(F)(F)F)c1", "Potency": "inconclusive [inhibitor, partial curve]"}, {"compound": "O=C(COC(=O)C1CC(=O)N(Cc2ccccc2)C1)c1ccc(F)cc1", "note": "(stereo not drawn)", "Potency": "inactive"}, {"compound": "CC(C)(C)OC(=O)N1Cc2cc3ccccc3nc2C1CO", "note": "(stereo not drawn)", "Potency": "inconclusive [inhibitor, partial curve]"}, {"compound": "COc1cccc(-c2cnc(C(O)c3ccc(-c4ccccc4)cc3)[nH]2)c1", "note": "(stereo not drawn)", "Potency": "inconclusive [inhibitor, single point]"}, {"compound": "CCOC(=O)C1=CN(Cc2cccc(Br)c2)S(=O)(=O)N(C)C1C", "note": "(stereo not drawn)", "Potency": "inconclusive [inhibitor, single point]"}, {"compound": "CCc1ccc(NC(=O)N(CCOC)C2CCN(C(C)=O)CC2)cc1", "Potency": "inactive"}, {"compound": "CC1=Nc2nc(N3CCCCCC3)c(C#N)c3c4c(nc(c23)N1)N(c1ccc2ccccc2c1)C(=O)C4", "Potency": "inconclusive [inhibitor, partial curve]"}, {"compound": "COc1cccc(N2CCN(S(=O)(=O)c3ccc4c(c3)N(C(C)=O)CCO4)CC2)c1", "Potency": "inconclusive [inhibitor, single point]"}, {"compound": "COc1ccc(NC(C)=O)cc1S(=O)(=O)N(C)Cc1c(C)nn(-c2ccccc2)c1C", "Potency": "inactive"}, {"compound": "COc1cccc(C(=O)OCC(=O)NCc2ccc3c(c2)OCO3)c1OC", "Potency": "inconclusive [inhibitor, single point]"}, {"compound": "COc1ccc(OC)c(NC(=O)CC2SC(=Nc3ccccc3)N(CCc3ccccn3)C2=O)c1", "note": "(stereo not drawn)", "Potency": "inconclusive [inhibitor, single point]"}]}]}
